# Some of the results follow.
# Target: T1, OsWOX13 (Oryza sativa, UniProt Q5QMM3 1-267)
# T1 sequence: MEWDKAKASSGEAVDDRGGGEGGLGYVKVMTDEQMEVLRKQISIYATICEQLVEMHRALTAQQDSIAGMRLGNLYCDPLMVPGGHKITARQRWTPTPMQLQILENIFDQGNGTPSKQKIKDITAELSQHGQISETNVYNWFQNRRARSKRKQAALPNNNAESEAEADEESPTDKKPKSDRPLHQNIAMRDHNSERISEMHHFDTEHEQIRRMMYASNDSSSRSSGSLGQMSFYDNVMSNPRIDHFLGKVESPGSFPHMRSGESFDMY
# Test: protein-binding microarray (RPBM); PBS, 2% BSA, 51.3 ng/ul salmon testes DNA, 50 uM zinc acetate, 200 nM TF, 25 C, 1 h; high values mean tight binding
# Conditions: protein: recombinant; tags: N-terminal polyhistidine and DsRed monomer fusion (pET32a); label: CyDye5-dUTP incorporated in the synthesized complementary strand; 3' TTTTT single-stranded linker to array surface; dsDNA, one strand shown
# Method in brief: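 A custom Agilent array was converted to double-stranded form by primer extension with Cy5-dUTP and blocked with 2% BSA. Protein at 200 nM in PBS with 2% BSA, salmon testes DNA and 50 µM zinc acetate was applied for 1 h at 25 °C, followed by washing. The proteins were polyhistidine–DsRed N-terminal fusions of transcription factors, expressed in E. coli BL21-CodonPlus and Ni–NTA-purified. The binding signal is per-feature fluorescence intensity (arbitrary units) from an Axon 4000B scanner.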
row,Sequence,binding signal
1,GATATAATTAAGATATGATATATGCAGGAAGTAATAGTAACGGAGTCACCTAGTGCAG,4660 fluorescence intensity (a.u.)
2,ACCGTTGCAATTACTTATTCGTTTCCTCCTTTCAAAATATCGGAGTCACCTAGTGCAG,3840 fluorescence intensity (a.u.)
3,GCACCTGTGATTATGTGAAGACGAAATCTTCAACCATGGACGGAGTCACCTAGTGCAG,11800 fluorescence intensity (a.u.)
4,CAAAGGATTGTGCACAGTAATTGACAAGACATTTAATCAGCGGAGTCACCTAGTGCAG,21700 fluorescence intensity (a.u.)
5,ATGATGGTCAAATAATAGAATTAGATGCACCGGTCATATGCGGAGTCACCTAGTGCAG,3850 fluorescence intensity (a.u.)
6,AGTACTACCACTCAATCACTCATGGTGAATAAAAGACTTACGGAGTCACCTAGTGCAG,4760 fluorescence intensity (a.u.)
7,AAACCAATTTCAATTACCAATTACTCCCTAATATTAGCTACGGAGTCACCTAGTGCAG,18900 fluorescence intensity (a.u.)
8,CTCTGATAGATTGCGACCTTCTTGTTGTTTAACAACGTTACGGAGTCACCTAGTGCAG,54000 fluorescence intensity (a.u.)
9,AAAATTTTAGTTATTAACAACAAATAAAACTGGTTTGCCACGGAGTCACCTAGTGCAG,3510 fluorescence intensity (a.u.)
10,ATATGATGATCAATATTGCAGAAACAAACACATCAGATGACGGAGTCACCTAGTGCAG,3570 fluorescence intensity (a.u.)
11,TTTGATTAGGGCCTCTTGGGTCATAACAGGAGGGTTTTAACGGAGTCACCTAGTGCAG,9310 fluorescence intensity (a.u.)
12,TCGTAAATTTAACTTCAAAAGTTAGATATAGAGCTTTACTCGGAGTCACCTAGTGCAG,8090 fluorescence intensity (a.u.)
13,ACAAATTTGACTATTTTCAGTTAACCCTTACCCAACAATTCGGAGTCACCTAGTGCAG,14900 fluorescence intensity (a.u.)
14,TATGGTTTAAATTGGCATCGGGAGAATAAGAGAGAGAGAGCGGAGTCACCTAGTGCAG,5580 fluorescence intensity (a.u.)
15,ATTGTATAGATTGTGACTAATTTGTGAGATGAATCTTTTACGGAGTCACCTAGTGCAG,15000 fluorescence intensity (a.u.)
16,TGAACTGATTTATCCAATGGTATAATCTTCTTAATTACGTCGGAGTCACCTAGTGCAG,17700 fluorescence intensity (a.u.)
17,ATGACTTGAAATTGAATTATCAGGATGCTAACATAACAGACGGAGTCACCTAGTGCAG,3940 fluorescence intensity (a.u.)
18,CTTGCACGACACATTCAAATTAAATTTGACTTGCACGATACGGAGTCACCTAGTGCAG,3330 fluorescence intensity (a.u.)
19,ACGAATCTTTTGAGTCTAATTACACCATGATTTTGACAATCGGAGTCACCTAGTGCAG,3770 fluorescence intensity (a.u.)
20,TCCTGTGATGGACTTGTGGTGTCCATCTTTTACTGAATAGCGGAGTCACCTAGTGCAG,3730 fluorescence intensity (a.u.)
21,GTCGTTATAAATTAACTAACTACTATTTTAACACAAATTTCGGAGTCACCTAGTGCAG,4120 fluorescence intensity (a.u.)

row,Sequence,binding signal
1,TAGAGGTGATGGAAATTGATAGGGAATTTAGTTGGAGATTCGGAGTCACCTAGTGCAG,28500 fluorescence intensity (a.u.)
2,GTGAGCCATTAGCGCATGATTAATTGAGTATTAACTATTTCGGAGTCACCTAGTGCAG,4390 fluorescence intensity (a.u.)
3,ATTGACAAGATAGATTGTTGCCCAATTTTCGAAGATGCTCCGGAGTCACCTAGTGCAG,42000 fluorescence intensity (a.u.)
4,GGCAAAATTACACTGTATTACAGACCGTTAGTAACGTACACGGAGTCACCTAGTGCAG,6070 fluorescence intensity (a.u.)
5,TTATAATTATTTTAGGACAGATGTAGTAAGTATCAAAACACGGAGTCACCTAGTGCAG,9510 fluorescence intensity (a.u.)
6,GTGATAAACTATACTTATTAATTATGCAGGTAATATGTAACGGAGTCACCTAGTGCAG,5550 fluorescence intensity (a.u.)
7,ATTAATGTAAATTAAATCCAACAGAATTGCTCTTTTACATCGGAGTCACCTAGTGCAG,23600 fluorescence intensity (a.u.)
8,GATGATGACGACAGTGACGCATTGGAAGATACATTCGCCTCGGAGTCACCTAGTGCAG,5530 fluorescence intensity (a.u.)
9,ATTTTAAACTCGACGACAAATTGACCGAGTCCCATCATTCCGGAGTCACCTAGTGCAG,4510 fluorescence intensity (a.u.)
10,AGTATAATATTAATTTATTGCACTTTCTGCTAGTTGCCTTCGGAGTCACCTAGTGCAG,11400 fluorescence intensity (a.u.)
11,AATGGTACTGATTAGATTATCTCTTTTCCTGAATTCTATGCGGAGTCACCTAGTGCAG,23500 fluorescence intensity (a.u.)
12,CTCCAAAACACTAATTAAGTTAACAAATAGAGCAACGAGCCGGAGTCACCTAGTGCAG,13600 fluorescence intensity (a.u.)
13,TATGATTTATAAGCCAGTAAATTTAATGTCCTAAGTTTAGCGGAGTCACCTAGTGCAG,26000 fluorescence intensity (a.u.)
14,CAAATAGCAAAGATTAATTAGTATAGTATATTTGAGGTTGCGGAGTCACCTAGTGCAG,4840 fluorescence intensity (a.u.)
15,GTTAGTCATGTGTTAATTTATATATCAATTTACGTGCGGGCGGAGTCACCTAGTGCAG,17600 fluorescence intensity (a.u.)
16,ATAATTGTGAGGAGAACCACAGATTGTCCTGATTTTCACACGGAGTCACCTAGTGCAG,3270 fluorescence intensity (a.u.)
17,ACCAATTTAATTTCTGTAGCTTGATTTCCTCTTTGGCACACGGAGTCACCTAGTGCAG,20400 fluorescence intensity (a.u.)
18,AGACTGTGATGGATAGAGACCACAATATTATCCATGCATACGGAGTCACCTAGTGCAG,7310 fluorescence intensity (a.u.)
19,CACTCTTGCATTTCTTTGATTGCAAATTTCCAAGGCAGAACGGAGTCACCTAGTGCAG,5250 fluorescence intensity (a.u.)
20,GATTGTACTTGATTTGCATTATGCAAAACATCAATAGCCCCGGAGTCACCTAGTGCAG,8340 fluorescence intensity (a.u.)
21,GTTGATGATAATAAGAAAACAATTACCAGTACGCAGTACGCGGAGTCACCTAGTGCAG,5850 fluorescence intensity (a.u.)
